# The whole screen tested about 310,000 compounds, of which about 14,000 (4.5%) showed an effect of 50% or more. Effects have a minus sign here. The list shows a part of the results.
# Target: human ether-à-go-go-related gene (hERG) potassium channel (human, UniProt Q12809)
# Experiment: primary screen, population patch clamp on CHO cells stably expressing hERG
# 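Note: peak tail current of the secondary pulse compared with the same well before compound.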
# human ether-à-go-go-related gene (hERG) potassium channel, sequence (Q12809 whole entry, looked up): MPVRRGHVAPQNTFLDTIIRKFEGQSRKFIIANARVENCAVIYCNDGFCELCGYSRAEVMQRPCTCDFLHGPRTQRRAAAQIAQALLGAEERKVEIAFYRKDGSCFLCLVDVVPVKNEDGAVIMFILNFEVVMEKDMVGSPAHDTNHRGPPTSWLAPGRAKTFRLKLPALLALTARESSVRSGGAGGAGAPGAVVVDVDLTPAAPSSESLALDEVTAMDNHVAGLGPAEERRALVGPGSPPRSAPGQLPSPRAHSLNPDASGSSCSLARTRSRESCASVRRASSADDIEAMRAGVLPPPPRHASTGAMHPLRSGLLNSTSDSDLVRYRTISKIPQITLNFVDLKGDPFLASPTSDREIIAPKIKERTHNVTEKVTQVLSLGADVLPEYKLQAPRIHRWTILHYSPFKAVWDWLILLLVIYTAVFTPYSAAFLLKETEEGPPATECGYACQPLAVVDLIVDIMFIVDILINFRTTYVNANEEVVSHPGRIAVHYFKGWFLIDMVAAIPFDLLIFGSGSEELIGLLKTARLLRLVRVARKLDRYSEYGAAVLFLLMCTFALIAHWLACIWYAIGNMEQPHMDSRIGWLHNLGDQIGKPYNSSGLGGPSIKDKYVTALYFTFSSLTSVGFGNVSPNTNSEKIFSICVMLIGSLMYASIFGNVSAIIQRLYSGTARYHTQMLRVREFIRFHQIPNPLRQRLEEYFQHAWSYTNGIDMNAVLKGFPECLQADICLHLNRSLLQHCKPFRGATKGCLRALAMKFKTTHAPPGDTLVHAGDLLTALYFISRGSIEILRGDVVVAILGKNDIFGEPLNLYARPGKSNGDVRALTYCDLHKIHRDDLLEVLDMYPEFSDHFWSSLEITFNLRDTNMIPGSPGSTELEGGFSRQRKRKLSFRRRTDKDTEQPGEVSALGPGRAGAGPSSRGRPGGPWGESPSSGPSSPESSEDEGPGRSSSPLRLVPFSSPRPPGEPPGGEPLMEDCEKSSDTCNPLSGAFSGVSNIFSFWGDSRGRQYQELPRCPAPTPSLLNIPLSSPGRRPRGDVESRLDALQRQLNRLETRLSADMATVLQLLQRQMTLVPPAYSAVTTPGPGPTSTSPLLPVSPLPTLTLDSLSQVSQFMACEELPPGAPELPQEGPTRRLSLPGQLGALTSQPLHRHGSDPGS
row,Structure (SMILES),"hERG current change (%, negative = inhibition) at 10uM"
1,CCOC(=O)c1sc(NC(=S)NC(=O)c2cccc(OC)c2)nc1C,15.4%
2,CN(C)S(=O)(=O)Nc1ccccc1C(N)=O,6.91%
3,O=C(NCCOC(=O)C1COc2ccccc2O1)C1COc2ccccc2O1 (centres unmarked),-29%
4,COc1ccc(C(=O)Nc2ccc(OC)c([N+](=O)[O-])c2)cc1Br,25.5%
5,CCOC(=O)c1sc(NC(=O)Nc2ccccc2F)nc1C,1.24%
6,Cc1ccc(S(=O)(=O)c2nc(S(C)(=O)=O)sc2NCC2CCCO2)cc1 (centres unmarked),-13.6%
7,O=C(CSc1nnc(NC(=O)c2c(F)cccc2F)s1)NCc1ccc(F)cc1,0.789%
8,CC(C)N(Cc1cn(C)nc1-c1cccc(Cl)c1)CC1CCC(=O)N1 (centres unmarked),-8.72%
9,CC(C)N(CCC(=O)c1ccc2ccccc2c1)Cc1ccccc1.Cl,9.07%
10,Cn1cc(S(=O)(=O)N2CCOCC2)cc1C(=O)NCc1ccccc1Cl,-16.9%
11,COc1ccc(CNCCCC(=O)Nc2c(Cl)ccc(C)c2Cl)cc1OC,-8.83%
12,Nc1nc(-c2ccc(Cl)cc2)nc(-c2ccc(Cl)cc2)n1,3.12%
13,CC1CC(C)CN(C(=O)Cn2nnc(-c3ccc(Br)cc3)n2)C1 (centres unmarked),2.22%
14,O=C(CCN1C(=O)/C(=C/c2ccc(F)cc2)SC1=S)N[C@@H](CO)Cc1ccccc1,15.7%
15,CSc1nc(N2CCOCC2)c2c3c(sc2n1)CCCC3,-2.32%
16,Cc1cc(=O)[nH]c(SCn2nnc3ccccc3c2=O)n1,1.39%
17,NNC(=O)CCc1c[nH]c2ccccc12,27.3%
18,CN(CCOc1ccccc1)Cc1nc2cc(Cl)ccc2c(=O)[nH]1,-48.9%
19,CC(OC(=O)c1cccc(S(=O)(=O)N2CCOCC2)c1)C(=O)NC1CCCCC1C (centres unmarked),5.52%

row,Structure (SMILES),"hERG current change (%, negative = inhibition) at 10uM"
1,COc1cc(C(=O)NCCc2cn3ccccc3n2)cc(OC)c1OC,-4.35%
2,COc1ccc(-n2c(-c3ccc(Br)cc3)c[n+]3c2CCc2ccccc2-3)cc1.[Br-],-85.2%
3,CNC(=O)COC(=O)CCC(=O)c1ccc(Cl)cc1,7.45%
4,Cn1c2ccccc2n2c(=O)c(Cl)c(-c3ccccc3)c(C#N)c12,3.23%
5,N#CCCN1CCn2c1nc1ccccc12,16.8%
6,COC(=O)c1ccccc1C(=O)N(Cc1cccnc1)CC1CCCN(C2CCCCC2)C1 (centres unmarked),-40%
7,CCOc1ccccc1C1CC(=O)Nc2cc(OC)c(OC)c(OC)c21 (centres unmarked),19.6%
8,CCOc1c(C)cnc2c1c(=O)n(Cc1ccccc1F)c(=O)n2C,-20%
9,CC(C(=O)Nc1ccc(F)c(F)c1F)N1CCCCCC1 (centres unmarked),6.01%
10,COc1cccc(NC(=O)c2cc3ccccc3oc2=O)c1,17.7%
11,Cc1ccccc1OCC(=O)Nc1nnc(C2CCCCC2)s1,10.7%
12,CC(C)(C)OC(=O)N/N=C/c1ccc(C(=O)O)cc1,19.7%
13,CCC(C)N1CC(C(=O)NC2CCCCC2)CC1=O (centres unmarked),13.9%
14,OCCOCCn1c(-c2ccccc2)nc(=S)c2c1CCCC2,9.34%
15,NS(=O)(=O)c1ccc(CCNC(=O)c2ccc(NC3=NC4CS(=O)(=O)CC4S3)cc2)cc1 (centres unmarked),22.2%
16,N#Cc1cc(NC2CCCC2)c([N+](=O)[O-])cc1C#N,-5.68%
17,Cc1cc(-c2c(C)n([O-])c(C)c(C)[n+]2=O)ccc1F,5.26%
18,CCOc1cc(C2C3=C(CC(C)(C)CC3=O)N(CCOC)C3=C2C(=O)CC(C)(C)C3)ccc1O,-3.99%
19,COc1cccc(C(=O)NNc2c3ccccc3nc3ccccc23)c1,-26%

row,Structure (SMILES),"hERG current change (%, negative = inhibition) at 10uM"
1,CC(=O)c1ccc(NC(=O)CCCN2C(=O)/C(=C/C(C)=C/c3ccccc3)SC2=S)cc1,19.2%
2,O=C(N/N=C/c1ccc(OC(=O)c2ccco2)cc1)c1ccccn1,10%
3,CCN(c1ccccc1)S(=O)(=O)c1ccc(Cl)c(C(=O)OCC(=O)NC(=O)C(C)C)c1,5.92%
4,O=C(CCCCn1c(=O)[nH]c2ccccc2c1=O)NCCC1=CCCCC1,9.16%
5,CN(CC(=O)NCc1cccs1)CC(=O)Nc1ccc(F)c(F)c1F,-21.5%
6,CC(Oc1cccc(Cl)c1)c1ccnc2nc(/N=C/N(C)C)nn12 (centres unmarked),-5.98%
7,COc1ccc(CCNS(=O)(=O)c2ccc3c(c2)NC(=O)CO3)cc1OC,12.2%
8,CCCCn1c(N)c(N(CCOC)C(=O)c2ccc(C)c(S(=O)(=O)N3CCOCC3)c2)c(=O)[nH]c1=O,1.29%
9,Cc1ccc(-c2cn(-c3ccc(OC(F)F)cc3)c3[n+]2CCCCC3)cc1.[Br-],-61.6%
10,NC(=O)CSc1nc2scc(-c3ccc(Cl)cc3)c2c(=O)n1Cc1ccccc1,33.1%
11,O=C(Nc1cccc(Br)c1)c1ccccc1-c1ccccc1,-22%
12,O=S(=O)(c1cc(Cl)ccc1Cl)N1CCN(Cc2ccco2)CC1,-54.1%
13,Cc1cc(C)c(NC(=O)COC(=O)Cc2cccs2)c(C)c1,14.8%
14,O=C(Nc1nnc(CSCc2ccc(F)cc2)s1)c1cccc([N+](=O)[O-])c1,17.6%
15,CC(=O)c1ccc(NC(=O)C2Cc3ccccc3CN2C(=O)c2ccccc2)cc1 (centres unmarked),-17.6%
16,CCOc1cc2[nH]c(=S)n(CCCN3CCCC3=O)c(=O)c2cc1OCC,-23.5%
17,COC(=O)c1c(-c2ccccc2)csc1NC(=O)c1c(-c2ccccc2)noc1C,-12.8%
18,Cc1coc2c1c(C)cc1oc(=O)c(CC(=O)NCCC(=O)O)c(C)c12,20%

# Source: PMC4336329 (PLoS ONE, 2015)
